Assay results from the supplement of paper PMC11417369.
± gives the standard deviation of the averaged measurements. The list shows a part of the results.

tested on: PfAP2-G AP2 domain (GST-tagged); assay: gcPBM binding intensity (ln(normalized median fluorescence intensity)); higher = stronger DNA binding
How it was run: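 For binding intensity, the highest Masliner-normalised natural-log median intensity across replicate spots of either probe orientation was taken. Protein bound to the array was stained with Alexa488 anti-GST antibody and scanned at 488 nm. The protein, GST-tagged P. falciparum DNA-binding domains from E. coli at about 25 μg on average, had been applied for 1 h to an Agilent 4 × 180k array of primer-extended double-stranded 36-bp intergenic genomic probes and negative controls.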

Row | Sequence | gcPBM binding intensity (ln)
1 | TTTTTTATTTTTTGTTATATTTATAATAATTTATGA [XGTACX_negctrl_site260] | 9.58 ± 0.071
2 | TTCAAAAAAGGAAAGTTGCACTTGATACGCTTATTA [GTGCAC_site9411] | 10.3 ± 0.25
3 | TACAGATATTTTATTTCACACATTTTATCATTTTCT [CACACA_site5701] | 9.87 ± 0.18
4 | TATATATTGTTATAATGTACATAATATTTTATCTGC [XGTACX_site4983] | 10.9 ± 0.45
5 | AGAATAATTTTATCGGTACACACTGTATGCATAATA [CACACA_site374] | 11 ± 0.71
6 | ATGCAAAATAAAGAAGCACACAAAAATGAAATATAT [CACACA_site9217] | 10.06 ± 0.042
7 | GGAAATTTCAATATTTGTACATATATATATATATAT [XGTACX_site3222] | 10.8 ± 0.65
8 | AAGAAATAAATACATACACACATATATATATATATA [CACACA_site3362] | 10.1 ± 0.39
9 | ATAAGTAATATAATATGTACATATATATATATATAT [XGTACX_site3818] | 11.2 ± 0.5
10 | TTTGTCTGCATACGCACACACGTGTACCATCTTATG [CACACA_site4784] | 11.2 ± 0.75
11 | TATTAATATATATGTTGTACAAGTTTTTTTTTTTTT [XGTACX_site5865] | 11.3 ± 0.66
12 | GATAAAATATGTTGCCGTACATATTCATATACTTAA [XGTACX_site4776] | 11 ± 0.62
13 | ATTTTTTTTTCTTAATGTACATACCAAAAAGAAAGA [XGTACX_site5471] | 11.2 ± 0.69
14 | TATAATATATTTTAATGTACGTACATCCCGATTAAT [XGTACX_site7651] | 11.7 ± 0.86
15 | TTCTATATTTCTTTTTGTACATATAAATTCAAATAA [XGTACX_site2476] | 11.3 ± 0.92
16 | ATATAAAATAATACATGTACATATTATATATATATA [XGTACX_site1082] | 11.1 ± 0.49
17 | TATATACGCATTTTTATACACACTTGTTTTATAAAA [CACACA_site727] | 10.4 ± 0.33
18 | TATTTATATTCATAATGTACATTCAATTATTGTTTT [XGTACX_site4191] | 10.8 ± 0.38
19 | TATTTTGAAAATAAAAGTACAAATTTTATATTTAAA [XGTACX_site3238] | 11.1 ± 0.83

Row | Sequence | gcPBM binding intensity (ln)
20 | AAATATTAAATGACAAAAAAAAAAAAAAAAGGGGTT [CACACA_negctrl_site951] | 9.64 ± 0.099
21 | TTCTTTATTTTTTCTACACACATTATATATTCAAAG [CACACA_site5866] | 10.12 ± 0.099
22 | AAGACCATATGAATAATGCACACGTTTTAAAATATT [CACACA_site2323] | 10.2 ± 0.11
23 | CACACGCACGGACACACACACAAAAAAAAAAAGAAA [CACACA_site6378] | 11.2 ± 0.98
24 | TTTCCATTTTCTCTATGTACATAAAAATGAGATAAA [XGTACX_site5689] | 11.3 ± 0.84
25 | GTTTGGTGGTGTTTTGGTACGTACGGGGGTGTATGT [XGTACX_site1211] | 11.7 ± 0.85
26 | AGGACTAATATTTGAACACACATATAATAAATACAT [CACACA_site6068] | 10.04 ± 0.021
27 | TCTTTGTACTTTCACATGTACACCCAAATGGAAATT [CACACA_negctrl_site1442] | 11.8 ± 0.87
28 | AAATAAATCTTATGCACACAAATAATTAATGAAACA [CACACA_site5011] | 10.1 ± 0.14
29 | ATATTTATGGAATATACACACATGTATAATTACATA [CACACA_site7045] | 9.98 ± 0.13
30 | TTCAAACATATTAATTGTACATACAACAAAACCATG [XGTACX_site5149] | 11.2 ± 0.49
31 | AATATATTTTAGAGTTTTATATATTTTATGCATATA [GTGCAC_negctrl_site710] | 9.72 ± 0.18
32 | ATATTATTTTATGCTACACACATTTTCTCTTATAAA [CACACA_site943] | 10.02 ± 0.035
33 | TGGAAAATAAAGTACGCACACAAAAATTCTCTTCAT [CACACA_site2327] | 11.5 ± 0.77
34 | AAAAAAAAAAAACACACACACACATTCAATATAAAA [CACACA_site40] | 9.93 ± 0.12
35 | ATATGTATTTATGTATTTATGTATTTTTATATTTTT [CACACA_negctrl_site595] | 9.925 ± 0.035
36 | TTTGACTAAATTAAATATTAAAGTATGGATTATTCT [CACACA_negctrl_site833] | 9.77 ± 0.11
37 | ACCCATTTGATAATAATGCACACCACATATATTTAT [CACACA_site3061] | 10.07 ± 0.042
38 | TGCAAGGAACAACACACACACACATAAATGTATATA [CACACA_site8149] | 10.1 ± 0.17

Row | Sequence | gcPBM binding intensity (ln)
39 | ATATATAATATATACACACACATGTATATATAAATA [CACACA_site1968] | 9.87 ± 0.16
40 | GGAATTTTTATTCGAAGTACTGTTGTGAGTAATAAA [XGTACX_site8599] | 10.9 ± 0.57
41 | TAAATGTTAAAATTCACACAAATATGTGCGGAATAT [CACACA_site5055] | 9.96 ± 0.15
42 | ATTGATTTTTAATATACACACATAAGGACCACAAAA [CACACA_site4344] | 11.3 ± 0.67
43 | AGAGAATATTTCCACACATGCAAATGTTATATGTAA [TGCATGCA_site282] | 10 ± 0.085
44 | TGCTATTATTTATGTACACACCAATTTATTTATAAT [CACACA_site6029] | 11.3 ± 0.67
45 | TTCGTTATATTTTGATGTACTGATTCATATATATAT [XGTACX_site1835] | 11 ± 0.67
46 | TTATAATATAAAAATAAATAAATAAATAAATAAATA [CACACA_negctrl_site1587] | 9.53 ± 0.24
47 | AATACGCATTTTAGTACACACTTAAAAAGTTATTTT [CACACA_site7401] | 11.3 ± 0.9
48 | AATTATATTAATTCTTCATTACATTTTAAAATATTA [XGTACX_negctrl_site510] | 9.935 ± 0.064
49 | ATTATATATGTATAAATATGCTATATATATATATAT [GTGCAC_negctrl_site430] | 9.94 ± 0.55
50 | TCAACATTTAAAAATAGTACTCATAAACCTTTCGAA [XGTACX_site4111] | 11.1 ± 0.62
51 | ATAAATAAAAAACACACACACACACCCAAAAAAAAA [CACACA_site2624] | 10.5 ± 0.31
52 | TAATATTTATTCTATTGTACATAAAATATATATATA [XGTACX_site7132] | 11.1 ± 0.83
53 | GGAAAGACATTACACAGTACCCAGGAAATCTACGGA [XGTACX_site2002] | 10.7 ± 0.35
54 | TATATTATTTAAAAAGTGCAGTTACAAGATGAACCT [GTGCAC_site9641] | 10.1 ± 0.11
55 | TATACATATGTATGCACACATACATACACATAGAAT [CACACA_site3480] | 10.1 ± 0.25
56 | TATGCAAGGAACCACACACACACACCCAAATGTATA [CACACA_site750] | 10.4 ± 0.33
